In all, about 310,000 compounds went through this assay and about 2,200 (0.71%) showed an effect of 50% or more. Effects have a minus sign here. The list shows a part of the results.

This test deals with human ether-à-go-go-related gene (hERG) potassium channel (human, UniProt Q12809). Nature of the test: primary screen, population patch clamp on CHO cells stably expressing hERG.
human ether-à-go-go-related gene (hERG) potassium channel, sequence (Q12809 whole entry, looked up): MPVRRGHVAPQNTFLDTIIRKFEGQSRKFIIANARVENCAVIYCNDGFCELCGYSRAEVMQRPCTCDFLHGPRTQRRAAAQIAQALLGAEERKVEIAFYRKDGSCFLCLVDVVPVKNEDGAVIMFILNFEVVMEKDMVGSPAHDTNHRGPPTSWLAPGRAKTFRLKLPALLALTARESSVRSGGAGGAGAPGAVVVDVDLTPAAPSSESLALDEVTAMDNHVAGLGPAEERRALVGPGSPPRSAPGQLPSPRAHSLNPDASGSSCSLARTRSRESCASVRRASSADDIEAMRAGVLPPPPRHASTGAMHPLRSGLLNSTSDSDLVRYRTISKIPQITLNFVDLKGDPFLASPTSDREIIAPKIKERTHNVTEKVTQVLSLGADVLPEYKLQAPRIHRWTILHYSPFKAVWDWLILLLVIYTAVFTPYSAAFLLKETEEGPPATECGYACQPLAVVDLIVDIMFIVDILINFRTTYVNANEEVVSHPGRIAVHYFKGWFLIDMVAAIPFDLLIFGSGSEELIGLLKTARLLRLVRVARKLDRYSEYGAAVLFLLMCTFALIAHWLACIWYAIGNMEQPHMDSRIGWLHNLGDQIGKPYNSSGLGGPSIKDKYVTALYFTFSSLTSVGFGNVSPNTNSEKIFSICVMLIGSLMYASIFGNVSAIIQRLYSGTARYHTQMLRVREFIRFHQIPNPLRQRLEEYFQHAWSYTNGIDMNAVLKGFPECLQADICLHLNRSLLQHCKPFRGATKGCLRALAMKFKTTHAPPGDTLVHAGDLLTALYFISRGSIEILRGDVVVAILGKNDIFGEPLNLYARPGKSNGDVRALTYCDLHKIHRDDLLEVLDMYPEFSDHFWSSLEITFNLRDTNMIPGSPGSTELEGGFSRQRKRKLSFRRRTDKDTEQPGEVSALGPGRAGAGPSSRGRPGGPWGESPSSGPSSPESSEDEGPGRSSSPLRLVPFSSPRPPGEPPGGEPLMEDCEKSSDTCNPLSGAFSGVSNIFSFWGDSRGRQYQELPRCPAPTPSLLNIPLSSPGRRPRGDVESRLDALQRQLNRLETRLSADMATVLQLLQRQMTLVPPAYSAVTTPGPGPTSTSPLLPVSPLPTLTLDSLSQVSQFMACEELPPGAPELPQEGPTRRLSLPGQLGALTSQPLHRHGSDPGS
In the case of `Cc1cc(C2C(=O)c3ccccc3C2=O)c(C)c(C)c1C`, the “hERG current change (%, negative = inhibition) at 1uM” value is 1.32%. The result for `C=CCn1c(COc2ccccc2)nnc1SCC(=O)Nc1ccc2c(c1)OCCO2` reads 7.66%. As to `O=C(CNS(=O)(=O)c1ccccc1)NCC(=O)OCc1ccccc1F`, the “hERG current change (%, negative = inhibition) at 1uM” value is on record as 9.02%.

Take `CC1(OC(=O)CCc2ccccc2)C(=O)C=C2C=C3CCCN3C=C2C1=O` (centres unmarked): the “hERG current change (%, negative = inhibition) at 1uM” value was 5.15%. Consider `COc1ccc(C(CNC(=O)c2ccc(OCc3ccccc3)cc2)N2CCOCC2)cc1` (centres unmarked), for which the “hERG current change (%, negative = inhibition) at 1uM” value worked out at 3.14%. On to `COC(=O)C1=CN(C(C)C)C=C(C(=O)OC)C1c1cc2c(cc1Br)OCO2`, for which the “hERG current change (%, negative = inhibition) at 1uM” value amounted to 7.11%.

In the case of `Cc1ccc(S(=O)(=O)N(C)CCCC(=O)Nc2ccncc2)cc1`, the “hERG current change (%, negative = inhibition) at 1uM” value is on record as -21.6%. Consider `CCOc1ccc2nc(C(=O)N3CCCC(C)C3)sc2c1` (centres unmarked), for which the “hERG current change (%, negative = inhibition) at 1uM” value turned out to be 6.18%.

With `COc1ccc(-c2cc3nc4c(c(N5CCC6(CC5)OCCO6)n3n2)CCC4)cc1`, the “hERG current change (%, negative = inhibition) at 1uM” value stood at 7.61%. For `Cn1c(COc2ccc3ccccc3c2)nnc1SCC(N)=O`, the “hERG current change (%, negative = inhibition) at 1uM” value turned out to be 9.4%. As for `CC(=O)c1ccccc1OCCOc1ccccc1C(C)=O`, the “hERG current change (%, negative = inhibition) at 1uM” value is on record as -10.8%.

Turning to `CCOC(=O)c1cc(=O)c2ccc(OCC(=O)Nc3ccccc3)cc2o1`, the “hERG current change (%, negative = inhibition) at 1uM” value was 9.79%. Consider `COCCN1C(=O)c2ccc(C(=O)NCc3ccco3)cc2C1=O`, for which the “hERG current change (%, negative = inhibition) at 1uM” value was 2.03%. Consider `CCCOc1ccc(N2C(=O)C3ON(c4ccccc4)C(CCC)C3C2=O)cc1` (centres unmarked), for which the “hERG current change (%, negative = inhibition) at 1uM” value worked out at 10.1%. Turning to `C=CCN1CCN(C(c2cccc(OC)c2OC)c2nnnn2CCC(C)C)CC1.Cl` (centres unmarked), the “hERG current change (%, negative = inhibition) at 1uM” value was determined as 10.7%. As to `Cc1cccc(C(=O)n2cnnc2N)c1`, the “hERG current change (%, negative = inhibition) at 1uM” value turned out to be 10.6%.

As to `O=C(CCNC(=O)C1CCN(S(=O)(=O)c2ccccc2)CC1)NCc1ccncc1`, the “hERG current change (%, negative = inhibition) at 1uM” value stood at 22.3%.

As for `O=c1[nH]cc(S(=O)(=O)c2ccccc2)[nH]1`, the “hERG current change (%, negative = inhibition) at 1uM” value is listed as 8.88%. Regarding `O=c1c2cn[nH]c2nc(SCc2c(F)cccc2F)n1-c1ccc(Cl)cc1`, the “hERG current change (%, negative = inhibition) at 1uM” value came out at 8.44%.

For `O=C(Oc1cccc(N2C(=O)CCC2=O)c1)c1ccccc1`, the “hERG current change (%, negative = inhibition) at 1uM” value is listed as 7.35%. Consider `CC(C)C(c1nnnn1C1CCCC1)N1CCN(C(=O)c2ccco2)CC1` (centres unmarked), for which the “hERG current change (%, negative = inhibition) at 1uM” value is -5.97%.

Regarding `Cc1ccc(S(=O)(=O)Nc2ccc3c(c2)OCCO3)cc1`, the “hERG current change (%, negative = inhibition) at 1uM” value is 15.5%.

In the case of `Cc1ccc(-c2nc(CSCC(=O)N3CCCC3)c(C)o2)cc1`, the “hERG current change (%, negative = inhibition) at 1uM” value is listed as -14.1%. Take `CCCC(=O)Nc1nnc(COC)s1`: the “hERG current change (%, negative = inhibition) at 1uM” value is 6.75%. The result for `CN=c1scc(C)n1/N=C/c1cc(Br)c(O)c(OC)c1` reads 18.2%. In the case of `S=C(NCc1cccc(Cl)c1)NCc1ccco1`, the “hERG current change (%, negative = inhibition) at 1uM” value is 14.9%.

Regarding `CCc1cc2c(=O)c(-c3nc(C)cs3)c(CCCC(=O)O)oc2cc1O`, the “hERG current change (%, negative = inhibition) at 1uM” value amounted to 22.4%. The result for `CCNc1nc2cccnc2s1` reads 10.3%; that for `CCOc1ccccc1NC(=O)COC(=O)C(CC(C)C)N1C(=O)C2CC=CCC2C1=O` (centres unmarked), 15.6%; that for `CC(=O)c1cccc(NC(=S)NCCC2=CCCCC2)c1`, 9.39%. Regarding `COc1ccc(Br)cc1CNc1ccc(N2CCOCC2)cc1`, the “hERG current change (%, negative = inhibition) at 1uM” value came to 12.5%.

Consider `O=c1[nH]cnc2sc3c(c12)CCCC3`, for which the “hERG current change (%, negative = inhibition) at 1uM” value is listed as 16.1%. The result for `CS(=O)(=O)Nc1nnc(SCC(=O)Nc2cccc([N+](=O)[O-])c2)s1` reads 3.42%; that for `NS(=O)(=O)c1cccc(NC(=O)c2cccc(-c3ccc(O)cc3)c2)c1`, 18%.

On to `CCc1ccc(S(=O)(=O)N/N=C\c2ccc3c(c2)OCO3)cc1`, for which the “hERG current change (%, negative = inhibition) at 1uM” value came out at 17.2%. In the case of `COc1ccccc1NC(=O)CCC(=O)OCC(=O)c1ccc(C)c([N+](=O)[O-])c1`, the “hERG current change (%, negative = inhibition) at 1uM” value came out at 9.32%. Take `CCOC(=O)c1c(C)[nH]c(C)c1C(=O)C(Cc1ccccc1)N(C)C.Cl` (centres unmarked): the “hERG current change (%, negative = inhibition) at 1uM” value turned out to be 10.9%. Turning to `Cc1ccccc1OCCC(=O)OCC(=O)NC1CC1`, the “hERG current change (%, negative = inhibition) at 1uM” value is reported as 1.25%.

With `CC(NC(=O)c1cccc(C(F)(F)F)c1)C1CCCO1` (centres unmarked), the “hERG current change (%, negative = inhibition) at 1uM” value is given as -4.83%. Take `COc1ccc(-c2nc(CCNC(=O)c3ccco3)cs2)cc1OC`: the “hERG current change (%, negative = inhibition) at 1uM” value is given as 7.08%.

For `O=C(NCc1cccnc1)c1cccc(Cl)c1`, the “hERG current change (%, negative = inhibition) at 1uM” value is 7.16%. Turning to `COC(=O)[C@H](CCSC)NC(=O)c1cc2c(cn1)[nH]c1ccccc12`, the “hERG current change (%, negative = inhibition) at 1uM” value stood at 14.3%. The result for `N#CCCN(C(=O)CO/N=C/c1cccc([N+](=O)[O-])c1)c1ccccc1` reads 17.1%; that for `Cc1ccc(S(=O)(=O)NNC(=O)Nc2cccc3ccccc23)cc1`, 12.5%; that for `Cl.O=C(CCN1CCOCC1)c1ccc(Br)cc1`, 14.9%. Take `Clc1ccc(-c2nc3cc(CN4CCCCC4)ccc3o2)cc1`: the “hERG current change (%, negative = inhibition) at 1uM” value was found to be 9.71%. Turning to `COc1ccc(O[C@H]2C=C[C@@H](c3ccccc3)O[C@@H]2COC(=O)CC/C(C)=N/OC[C@@H](O)[C@H]2O[C@@H]3OC(C)(C)O[C@@H]3[C@H]2O)cc1`, the “hERG current change (%, negative = inhibition) at 1uM” value is reported as -11.2%.

As to `CC(=O)Nc1ncc2c(n1)CC(c1ccco1)CC2=O` (centres unmarked), the “hERG current change (%, negative = inhibition) at 1uM” value is recorded as -4.91%.

For the compound `Cc1cccc(N2CCN(C(=O)c3cn4ccccc4n3)CC2C)c1` (centres unmarked), the “hERG current change (%, negative = inhibition) at 1uM” value was found to be 12.1%. In the case of `COc1ccccc1NS(=O)(=O)c1ccc(-c2cc(C)no2)s1`, the “hERG current change (%, negative = inhibition) at 1uM” value stood at 13.5%. Take `Cc1cccc(NC(=O)c2csnn2)n1`: the “hERG current change (%, negative = inhibition) at 1uM” value was found to be 9.84%. In the case of `O=C1CC2c3ccccc3C1C1C(=O)N(CCO)C(=O)C21` (centres unmarked), the “hERG current change (%, negative = inhibition) at 1uM” value was found to be 7.35%. With `O=C(Nc1ccc(Oc2ccccc2)cc1)c1ccco1`, the “hERG current change (%, negative = inhibition) at 1uM” value is given as 4.74%.

For `Cc1cc(C(F)(F)F)nc(SCC(=O)Nc2c(C)n(C)n(-c3ccccc3)c2=O)n1`, the “hERG current change (%, negative = inhibition) at 1uM” value was -0.388%. As to `Cc1ccccc1NC(=O)N1CCc2ccccc2C1`, the “hERG current change (%, negative = inhibition) at 1uM” value turned out to be 20.1%.

Regarding `COCCCNc1nc2c(c(=O)[nH]c(=O)n2C)n1CC(O)COc1ccccc1` (centres unmarked), the “hERG current change (%, negative = inhibition) at 1uM” value is reported as -2.53%. On to `CCN1C(=O)C(CC(=O)NC2CCCCC2)N(CC)C1=O` (centres unmarked), for which the “hERG current change (%, negative = inhibition) at 1uM” value is given as 6.32%. Take `COc1ccc(CNC(=O)CNC(=O)N2CC(=O)Nc3ccccc32)cc1`: the “hERG current change (%, negative = inhibition) at 1uM” value is 7.68%. As to `COc1ccc(NC(=O)CN(C)C(=O)C23CC4CC(CC(C4)C2)C3)cc1`, the “hERG current change (%, negative = inhibition) at 1uM” value was -11%.
